{"source": "paper PMC5397172", "about": "(Nucleic Acids Research, 2016)", "biological_target": "His-p65-N (a.a.1–340) (UniProt Q04206 1-340)", "sequence (Q04206 1-340)": "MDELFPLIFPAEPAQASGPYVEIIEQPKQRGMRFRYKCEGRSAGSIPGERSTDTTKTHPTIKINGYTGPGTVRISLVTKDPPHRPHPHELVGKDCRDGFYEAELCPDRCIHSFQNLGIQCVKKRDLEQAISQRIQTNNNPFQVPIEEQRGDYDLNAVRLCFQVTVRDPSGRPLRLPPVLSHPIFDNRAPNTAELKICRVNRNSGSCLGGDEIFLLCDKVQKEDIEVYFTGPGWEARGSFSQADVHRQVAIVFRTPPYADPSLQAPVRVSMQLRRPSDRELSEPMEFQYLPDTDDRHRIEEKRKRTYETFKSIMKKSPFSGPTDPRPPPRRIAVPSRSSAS", "experiment": "native gel or EMSA"}
{"binder": "His-p65-C ([…]) (domain or fragment) not shown", "values": [{"measurement": "binding result", "value": "binds"}]}
